{"source": "PubChem BioAssay AID1476", "about": "(National Center for Advancing Translational Sciences (NCATS), 2009)", "note": "In all, about 200,000 compounds went through this assay and about 4,500 (2.2%) were called active. Inconclusive results, whose numbers are uncertain, are shown with a selection of clear calls. The call rests on the fitted dose curve; in most records, active means well fitted inhibition curve with a large enough effect; inconclusive means small, poorly fitted or top-dose-only effect, or effect the other way; inactive means flat fitted curve, though single readings scatter. A potency beside an inconclusive call is a rough fit, not a confirmed value."}
{"target": "Cruzipain (Trypanosoma cruzi) (UniProt P25779)", "sequence (P25779 whole entry, looked up)": "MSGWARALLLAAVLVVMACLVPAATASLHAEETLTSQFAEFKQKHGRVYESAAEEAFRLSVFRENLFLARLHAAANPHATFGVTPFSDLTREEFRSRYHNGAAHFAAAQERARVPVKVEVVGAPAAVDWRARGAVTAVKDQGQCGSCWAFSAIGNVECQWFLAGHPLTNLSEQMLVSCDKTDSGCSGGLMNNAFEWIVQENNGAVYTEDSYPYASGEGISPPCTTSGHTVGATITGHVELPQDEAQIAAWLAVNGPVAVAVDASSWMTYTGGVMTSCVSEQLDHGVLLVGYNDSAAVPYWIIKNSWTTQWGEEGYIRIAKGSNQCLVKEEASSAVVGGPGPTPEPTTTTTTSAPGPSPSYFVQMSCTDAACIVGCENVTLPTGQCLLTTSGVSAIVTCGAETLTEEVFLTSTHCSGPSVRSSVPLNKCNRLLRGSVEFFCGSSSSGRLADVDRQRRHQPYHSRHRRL", "test": "qHTS Assay for Promiscuous and Specific Inhibitors of Cruzain (without detergent); further: nearly all actives have a fitted effect of over 40% in size; further: potency means the concentration at half of the fitted maximal effect; tags describe the fitted curve by direction and shape;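 on max response, negative = inhibition: plate controls were enzyme without inhibitor for no effect and buffer without enzyme for full effect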", "details": "purified cruzain, Z-FR-AMC fluorescence, no detergent", "outline": "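Detergent-free condition (0.00005% Triton X-100) in acetate buffer pH 5.5 with DTT. 1.5 nM enzyme and compound were pre-mixed 15 min, then 2 uM Z-FR-AMC substrate added; reaction progress from fluorescence change between first and third reads (60 s).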"}
{"compound": "CCCCN1CC(c2nc3ccccc3n2CCCCOc2ccc(C)cc2C)CC1=O", "note": "(configuration not stated)", "max response, negative = inhibition": "inactive: 1.93%"}
{"compound": "Cc1ccc(-c2nn(-c3ccccc3)cc2C(=O)N2CCOCC2)cc1", "Potency": "inconclusive: 25.1 µM [activator, single point]"}
{"compound": "COc1ccc(N(C(C)C(=O)NCc2ccco2)S(C)(=O)=O)cc1", "note": "(configuration not stated)", "Potency": "inconclusive: 31.6 µM [activator, single point]"}
{"compound": "Cc1nc2cnc(N3CCN(C)CC3)nc2n(C2CC2)c1=O", "max response, negative = inhibition": "inactive: -16.7%"}
{"compound": "COc1cc2[nH]c(=O)n(Cc3ccc(C(=O)NCc4ccccc4)cc3)c(=O)c2cc1OC", "Potency": "inconclusive: 39.8 µM [activator, single point]"}
{"compound": "Cc1ccc(CC(=O)Nc2nc3ccccc3s2)cc1", "max response, negative = inhibition": "inactive: -10.1%"}
{"compound": "Cc1ccc(-n2c(SCC(=O)Nc3ccc4c5c(cccc35)CC4)nc(O)c(C)c2=O)cc1", "Potency": "inconclusive: 0.0794 µM [inhibitor, partial curve, poor fit]"}
{"compound": "COc1ccccc1N=C1SC(C(=O)Nc2ccc(F)cc2)CC(=O)N1C", "note": "(configuration not stated)", "Potency": "inconclusive: 25.1 µM [activator, single point]"}
{"compound": "CC(C)CCn1c(N)c(C(=O)OCC2CCCO2)c2nc3ccccc3nc21", "note": "(configuration not stated)", "Potency": "inconclusive: 10 µM [activator, partial curve]"}
{"compound": "COc1cccc(OC)c1C(=O)NC(=S)Nc1cc(-c2nc3ccccc3[nH]2)ccc1Cl", "Potency": "inconclusive: 39.8 µM [inhibitor, single point]"}
{"compound": "O=S(=O)(Nc1cccnc1)c1ccc2c(c1)OCCO2", "Potency": "inconclusive: 0.199 µM [inhibitor, full curve, poor fit]"}
{"compound": "O=Cc1nc(-c2ccc(Cl)cc2)n2ccccc12", "Potency": "inconclusive: 25.1 µM [activator, single point]"}
{"compound": "CC(C)[C@]1(NC(=O)[C@@H]2C=C3c4cccc5[nH]cc(c45)C[C@H]3N(C)C2)O[C@@]2(O)C3CCCN3C(=O)[C@H](Cc3ccccc3)N2C1=O", "note": "(some centres not stated)", "max response, negative = inhibition": "inactive: 17.7%"}
{"compound": "COc1cc(Cl)c(C)cc1NC(=O)c1cc2ccc3cccnc3c2[nH]1", "Potency": "inconclusive: 31.6 µM [inhibitor, single point]"}
{"compound": "CCOc1ccc(NC(=O)N2CC=C(c3c[nH]c4ccccc34)CC2)cc1", "max response, negative = inhibition": "inactive: 8.07%"}
{"compound": "CC1=C(c2ccc(C)c(C)c2)S(=O)(=O)N=C1N1CCC(C(=O)NCCc2ccc(Cl)cc2)CC1", "Potency": "inconclusive: 6.31 µM [activator, single point]"}
{"compound": "COc1ccc(/C=N/NC(=O)c2cc(-c3ccc4c(c3)OCO4)n[nH]2)cc1OC", "Potency": "inconclusive: 39.8 µM [activator, single point]"}
{"compound": "COc1ccc(-n2c(=O)c3c4c(sc3n(Cc3ccccc3)c2=O)CN(C(C)=O)CC4)cc1OC", "Potency": "inconclusive: 25.1 µM [activator, partial curve]"}
{"compound": "Cc1cc(C)cc(NC(=O)c2ccc(CSc3nnc(C)s3)cc2)c1", "Potency": "inconclusive: 39.8 µM [activator, single point]"}
{"compound": "CCOc1ccc(CN(C(=O)c2oc3cc(C)ccc3c2C)C2CCS(=O)(=O)C2)cc1", "note": "(configuration not stated)", "Potency": "inconclusive: 39.8 µM [activator, single point]"}
{"compound": "CCOC(=O)c1c(C)[nH]c(C)c1S(=O)(=O)N1CCC(C(=O)N2CCN(c3ccc(Cl)cc3)CC2)CC1", "Potency": "inconclusive: 31.6 µM [activator, partial curve]"}
{"compound": "COc1cccc(NC(=O)c2oc3ccccc3c2NC(=O)c2ccc(C(F)(F)F)cc2)c1", "Potency": "inconclusive: 5.01 µM [inhibitor, single point]"}
{"compound": "COc1cc(/C=C(\\C#N)c2nc3ccc(C)cc3[nH]2)c([N+](=O)[O-])cc1OC", "Potency": "inconclusive: 39.8 µM [activator, single point]"}
{"compound": "Cc1cc(C)n(-c2nc(NCCCO)c3c4c(sc3n2)CCCC4)n1", "Potency": "inconclusive: 31.6 µM [activator, single point]"}
{"compound": "CC(=O)C(Sc1ccc2nnc(-c3ccc(C)cc3)n2n1)C(C)=O", "Potency": "inconclusive: 39.8 µM [activator, single point]"}
{"compound": "COc1cccc(OCCCn2cc(/C=C3/C(=N)N4C=C(C)SC4=NC3=O)c3ccccc32)c1", "Potency": "active: 12.6 µM"}
{"compound": "COc1ccccc1Nc1nc(-c2sc(NC(=O)c3ccco3)nc2C)cs1", "Potency": "inconclusive: 31.6 µM [inhibitor, single point]"}
{"compound": "C=CC[C@@H]1C=C[C@H](O/N=C/c2ccc(C(=O)N3[C@H](c4ccc(C)cc4)[C@@H](C)CC[C@H]3C(=O)OC)cc2)[C@@H](CO)O1", "Potency": "inconclusive: 12.6 µM [activator, partial curve]"}
{"compound": "O=C(Nc1nnc(-c2ccccc2)o1)c1cc(Cl)sc1Cl", "Potency": "inconclusive: 31.6 µM [inhibitor, single point]"}
{"compound": "COc1cccc(NC(=O)/C(C#N)=C\\c2cn(Cc3ccc(C)cc3)c3ccccc23)c1", "Potency": "active: 7.94 µM"}
{"compound": "COc1ccccc1CNc1ccc(-c2nc(C)no2)cc1[N+](=O)[O-]", "Potency": "active: 20 µM"}
{"compound": "O=C(CN1C(=O)/C(=C/c2ccccc2)SC1=S)Nc1ncc(Cc2ccccc2)s1", "Potency": "active: 3.98 µM"}
{"compound": "CCOc1ccc(-n2c(SCC(=O)Nc3cc(OC)c([N+](=O)[O-])cc3C)nc3ccccc32)cc1", "Potency": "active: 7.94 µM"}
{"compound": "COc1ccc([N+](=O)[O-])cc1NC(=O)COC(=O)Cc1cc(OC)c(OC)c(OC)c1", "Potency": "inconclusive: 39.8 µM [activator, single point]"}
{"compound": "Cc1nn(Cc2c(Cl)cccc2Cl)c(C)c1C(=O)NCc1ccc(C)n1C", "Potency": "inconclusive: 39.8 µM [activator, single point]"}
{"compound": "Cc1ccc(C)c(N2CCN(C(=O)CN3CCSc4ccc(S(=O)(=O)N(C)C)cc43)CC2)c1", "max response, negative = inhibition": "inactive: -12.8%"}
{"compound": "CCOC(=O)c1cc([N+](=O)[O-])sc1NC(=O)c1ccc(S(=O)(=O)N2CC3(C)CC2CC(C)(C)C3)cc1", "note": "(configuration not stated)", "Potency": "active: 3.98 µM"}
{"compound": "O=C(Nc1ccccc1)Nc1nnc(/C=C/c2ccccc2Cl)s1", "Potency": "active: 25.1 µM"}
{"compound": "COc1ccc(C)cc1Nc1nc(-c2c(C)[nH]c3ccccc23)cs1", "Potency": "active: 25.1 µM"}
{"compound": "CCSc1nc2ccccc2n1C(=O)/C=C\\c1ccc(OC)c(OC)c1", "Potency": "inconclusive: 31.6 µM [activator, single point]"}
{"compound": "C[C@@]1(C(NS(=O)(=O)c2cccc3cccnc23)c2ccc(-c3ccccc3)cc2)C[C@H]1C1CCCCC1", "note": "(some centres not stated)", "Potency": "inconclusive: 6.31 µM [inhibitor, single point]"}
{"compound": "COc1nc(N2CCCCCC2)nc(N2CCCCCC2)n1", "max response, negative = inhibition": "inactive: -0.934%"}
{"compound": "Cc1ccc(NC(=O)Cn2c(=O)n(-c3ccc(Cl)c(Cl)c3)c(=O)c3c(C)c(C)sc32)c(C)c1", "max response, negative = inhibition": "inactive: -3.94%"}
{"compound": "COc1cccc(CSc2nc3n(n2)C(c2cccs2)C(C(=O)Nc2ccccc2C)=C(C)N3)c1", "note": "(configuration not stated)", "max response, negative = inhibition": "inactive: 16.9%"}
{"compound": "CC1CCCCN1CC(=O)c1ccc2cc[nH]c2c1", "note": "(configuration not stated)", "max response, negative = inhibition": "inactive: -12.3%"}
{"compound": "CC1=C(C(=O)Nc2ccc([N+](=O)[O-])cc2)C(c2cccc(C(F)(F)F)c2)NC(=S)N1c1ccccc1", "note": "(configuration not stated)", "Potency": "inconclusive: 39.8 µM [inhibitor, single point]"}
{"compound": "CCS(=O)(=O)c1nc(S(=O)(=O)c2ccc(Cl)cc2)c(N2CCc3ccccc3C2)s1", "Potency": "inconclusive: 39.8 µM [inhibitor, single point]"}
{"compound": "Cc1ccc(-c2nc(C#N)c(NCCN3CCCCC3)o2)cc1", "Potency": "inconclusive: 39.8 µM [activator, single point]"}
{"compound": "COc1ccc(S(=O)(=O)N2CCCC(C(=O)Nc3ccc(OC)c(OC)c3)C2)cc1", "note": "(configuration not stated)", "Potency": "inconclusive: 31.6 µM [activator, single point]"}
{"compound": "O=S(=O)(NCCc1csc2nc(-c3ccc(F)cc3)nn12)c1ccc(Br)cc1", "max response, negative = inhibition": "inactive: 2.26%"}
{"compound": "COC(=O)c1[nH]c2cccc(C)c2c1NC(=O)CN1CCCc2ccccc21", "Potency": "inconclusive: 39.8 µM [activator, single point]"}
{"compound": "CCOC(=O)c1ccc(NC(=O)c2c(NCc3cccs3)sc3c2CCCCC3)cc1", "max response, negative = inhibition": "inactive: -0.569%"}
{"compound": "COC(=O)c1c(-c2cc(OC)c(OC)c(OC)c2)c2ccnc(OCc3ncccn3)c2c(=O)n1Cc1ccnc(C)c1", "Potency": "inconclusive: 39.8 µM [activator, single point]"}
{"compound": "COc1ccc(CC(=O)NC(=S)NNC(=O)COc2c(C)cccc2C)cc1", "Potency": "inconclusive: 31.6 µM [inhibitor, single point]"}
{"compound": "CCOc1ccc(S(=O)(=O)N(C)c2ccc(OCC(=O)Nc3nc4ccccc4s3)cc2)cc1", "Potency": "inconclusive: 39.8 µM [inhibitor, single point]"}
{"compound": "COc1ccc(OCC2c3cc(OC)c(OC)cc3CCN2C(=O)c2ccc(F)cc2)cc1", "note": "(configuration not stated)", "Potency": "inconclusive: 39.8 µM [activator, single point]"}
{"compound": "CCCCNC(=O)c1cc2c(=O)n3cccc(C)c3nc2n(Cc2ccncc2)c1=N", "max response, negative = inhibition": "inconclusive: -74% [inhibitor]"}
{"compound": "CCOC(=O)c1c(C)oc2nc(C)nc(N3CCN(c4ccc(C(C)=O)cc4)CC3)c12", "max response, negative = inhibition": "inactive: -7.1%"}
{"compound": "COc1ccc(CNC(=O)Cc2csc(Nc3nc(=S)[nH]c4ccccc34)n2)cc1", "Potency": "inconclusive: 39.8 µM [inhibitor, single point]"}
{"compound": "CCOC(=O)N1CCC(NC(=O)c2cc3c(=O)n(C)c4ccccc4c3n2C)CC1", "Potency": "inconclusive: 39.8 µM [activator, single point]"}
{"compound": "CC(=O)C1=C(C)NC(SCC(=O)c2ccc(Cl)cc2Cl)=C(C#N)C1c1ccco1", "note": "(configuration not stated)", "Potency": "active: 31.6 µM"}
{"compound": "O=c1[nH]c(=O)n(-c2cccc3ccccc23)c(O)c1C=NCc1ccc2c(c1)OCO2", "Potency": "inconclusive: 39.8 µM [inhibitor, single point]"}
